Data as given in PMC4336329 (PLoS ONE, 2015).
About 2,200 (0.71%) of roughly 310,000 compounds showed an effect of 50% or more. The effect is printed as a negative number. The list shows a part of the results.

target: human ether-à-go-go-related gene (hERG) potassium channel (human, UniProt Q12809); assay: primary screen, population patch clamp on CHO cells stably expressing hERG
Sequence (Q12809 whole entry, looked up): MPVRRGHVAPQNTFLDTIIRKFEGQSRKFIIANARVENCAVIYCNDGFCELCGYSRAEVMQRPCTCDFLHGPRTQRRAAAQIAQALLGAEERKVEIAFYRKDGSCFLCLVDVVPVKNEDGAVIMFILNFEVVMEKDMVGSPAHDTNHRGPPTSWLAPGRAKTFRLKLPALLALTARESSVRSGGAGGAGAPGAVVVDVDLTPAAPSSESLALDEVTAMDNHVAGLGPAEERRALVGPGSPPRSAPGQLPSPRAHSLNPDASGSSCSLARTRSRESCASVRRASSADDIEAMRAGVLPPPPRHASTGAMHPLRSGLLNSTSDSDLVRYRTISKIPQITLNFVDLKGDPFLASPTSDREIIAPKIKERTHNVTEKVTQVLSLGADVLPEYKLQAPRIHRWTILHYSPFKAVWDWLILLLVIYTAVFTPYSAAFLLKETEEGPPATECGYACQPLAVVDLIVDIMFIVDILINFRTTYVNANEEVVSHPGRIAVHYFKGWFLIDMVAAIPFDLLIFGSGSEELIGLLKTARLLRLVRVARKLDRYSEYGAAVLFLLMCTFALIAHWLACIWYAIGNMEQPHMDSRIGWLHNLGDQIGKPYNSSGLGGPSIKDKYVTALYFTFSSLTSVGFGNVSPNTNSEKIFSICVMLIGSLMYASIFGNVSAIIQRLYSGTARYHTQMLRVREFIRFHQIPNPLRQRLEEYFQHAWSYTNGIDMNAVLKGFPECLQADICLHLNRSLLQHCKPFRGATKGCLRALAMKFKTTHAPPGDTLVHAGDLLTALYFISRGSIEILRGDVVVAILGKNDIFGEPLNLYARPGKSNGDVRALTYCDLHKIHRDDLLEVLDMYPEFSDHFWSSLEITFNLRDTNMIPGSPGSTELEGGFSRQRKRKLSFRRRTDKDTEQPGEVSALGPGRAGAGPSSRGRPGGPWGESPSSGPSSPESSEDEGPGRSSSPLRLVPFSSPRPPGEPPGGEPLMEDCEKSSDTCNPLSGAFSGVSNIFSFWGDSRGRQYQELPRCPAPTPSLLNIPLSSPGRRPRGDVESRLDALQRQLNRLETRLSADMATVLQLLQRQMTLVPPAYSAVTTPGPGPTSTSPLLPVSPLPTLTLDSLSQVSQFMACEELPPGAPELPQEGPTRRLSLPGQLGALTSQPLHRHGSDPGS

Row | SMILES | hERG current change (%, negative = inhibition) at 1uM [%]
1 | Cc1nn(C)cc1CNC(=O)CCC(=O)O | 9.41
2 | COc1ccc(C(=O)NNC(=O)c2snnc2C)cc1 | 14.7
3 | Cl.c1cnc(N2CCNCC2)nc1 | 11.3
4 | Cc1cc(C(=O)Nc2nc(C)c(C(=O)N(C)C)s2)ccc1[N+](=O)[O-] | 7.78
5 | COC(=O)c1cccc(NC(=O)CC2C(=O)NCCN2C(=O)Nc2ccccc2)c1 (centres unmarked) | 13.3
6 | Cc1ccc(-c2csc3ncnc(NCCC(=O)O)c23)cc1C.Cl | 11.7
7 | O=C(Nc1ccccc1NC(=O)c1ccccc1Cl)c1ccccc1Cl | 14.5
8 | CCn1ncc(CNC(=O)C2(C)CC2(Cl)Cl)c1C (centres unmarked) | 7.37
9 | COc1ccc(Cl)cc1Nc1cc(C)nc2nc(C)nn12 | -2.49
10 | Cc1ccc(SCC(=O)Nc2c(Br)cnn2C)cc1 | 11.4
11 | COc1cccc(/C=N/NC(=S)Nc2cccc(C(=O)O)c2)c1O | 16.8
12 | COc1cccc(C(=O)Nc2ccc3nc(N4CCOCC4)cc(C)c3c2)c1 | -12.3
13 | COc1cc(OC)cc(C(=O)NNC(=O)CN2C(=O)NC3(CCCC3)C2=O)c1 | 5.37
14 | O=C(CCCN1C(=O)/C(=C\c2ccccc2)SC1=S)Nc1ccc(C(=O)O)cc1 | 14.1
15 | COc1ccc2cc(CN(CC3CCCO3)C(=S)Nc3ccccc3)c(=O)[nH]c2c1 (centres unmarked) | 6.42
16 | Cn1c(=O)c2nc(-c3ccccc3)oc2c2ccccc21 | 11.2
17 | Cc1ccc(C(=O)NCCCn2ccnc2)cn1 | -0.918
18 | Cc1cc(C)cc(NC(=S)N(CCN2CCCCC2)Cc2ccco2)c1 | -21.8
19 | C[C@@H]([C@@H](O)c1ccccc1)N(C)C(=O)C(N)Cc1ccccc1 (some centres unmarked) | 7.52
20 | CCN1CCN(C(=O)COCc2cc(-c3ccc4c(c3)OCO4)on2)CC1 | -0.269
21 | Cn1ncc(Cl)c1C(=O)Nc1cc(C(F)(F)F)ccc1F | 24.3
22 | Cc1nn(-c2ccccc2)c(Cl)c1C(=O)N1CCN(C)CC1 | 2.04
23 | Cc1nc2c(sc(=S)n2Cc2ccco2)c(=O)n1CC(=O)Nc1ccc(F)cc1 | 5.48

Row | SMILES | hERG current change (%, negative = inhibition) at 1uM [%]
24 | COc1ccccc1CCC(=O)Nc1ccc(OC)c(S(=O)(=O)N2CCCCC2)c1 | -7.66
25 | Cc1ccc(N2C(=O)NC(=O)/C(=C/c3cnc(-c4ccccc4)nc3)C2=O)cc1C | 7.11
26 | O=C(CCN1C(=O)c2ccccc2C1=O)Nc1ccc(-c2nc3ccccc3o2)cc1 | 11.8
27 | O=C(COc1ccc(Cl)cc1)N1CCN(C(=O)c2ccccc2F)CC1 | -2.94
28 | Cn1nc(C(F)(F)F)c2cc(NC(=O)OCc3ccc(F)cc3)sc21 | 8.2
29 | COc1ccccc1CNC(=O)[C@H](C)NC(=O)C1CCN(C(=O)[C@@H](N)C(C)C)CC1 | 11.2
30 | COc1ccc(/C=N/NC(=O)c2c(C)n(C)c3ccc(OC)cc23)c(OC)c1 | 7.02
31 | O=C(Nc1ccon1)c1ccc2c(c1)OCO2 | 4.41
32 | COc1cc(CN2CCCCCC2)cc(OC)c1O | 10.8
33 | Cc1ccccc1S(=O)(=O)c1c(C)cc(C)n(C)c1=O | 4.08
34 | O=C(NC(C(=O)c1ccccc1)N1CCOCC1)c1cccs1 (centres unmarked) | -6.41
35 | COC(=O)c1cn(NC(=O)c2ccc(OC)c([N+](=O)[O-])c2)c(=O)c2ccccc12 | 13.1
36 | N#Cc1ccccc1S(=O)(=O)N1CCN(C(=O)CN2CCCSc3ccccc32)CC1 | -4.14
37 | Cc1nc([N+](=O)[O-])c(NCCO)n1Cc1ccccc1 | 6.47
38 | COc1nc(-c2ccc(Cl)cc2Cl)nc2ccccc12 | 9.76
39 | COc1ccc(CN2CCN(Cc3ccco3)CC2)c(OC)c1.O=C(O)C(=O)O | -17.9
40 | CCN1C(=O)c2ccccc2S(=O)(=O)c2ccc(C(=O)N3CCOCC3)cc21 | 1.8
41 | CC(C)C[C@H]1CN=C(Nc2ccccc2)N1CCC1CCCCC1 | -1.21
42 | CSc1ccccc1C(=O)Nc1cc2c(cc1C(=O)O)OCCCO2 | 15.1
43 | O=C(COC(=O)CCC1CCCC1)Nc1ccc(F)cc1 | 15.7
44 | NS(=O)(=O)c1ccc(CCNC(=O)c2ccc3nc4ccc(Cl)cc4c(=O)n3c2)cc1 | 13
45 | CN(C)S(=O)(=O)c1ccc(C(=O)NCCSc2ccc(Br)cc2)cc1 | -11
46 | C/C(=N\NC(=O)c1cc(C)nc2ccccc12)c1ccccn1 | 5.58

Row | SMILES | hERG current change (%, negative = inhibition) at 1uM [%]
47 | Cc1n[nH]c(=O)c2c(NC(=O)CSc3nc4ccccc4c(=O)n3C(C)C)oc(C)c12 | 14.6
48 | CC(Oc1cc2oc(=O)c3c(c2cc1Cl)CCCC3)C(=O)NCCN1CCOCC1 (centres unmarked) | 5.55
49 | CCN1CCN(CC(=O)N2N=C(c3cccs3)CC2c2ccc(OC)c(OC)c2)C(=O)C1=O (centres unmarked) | 15.5
50 | Cc1c(C(=O)Nc2ccc(OCc3ccccc3)cc2)cccc1[N+](=O)[O-] | 5.88
51 | COC(=O)C1=C(Nc2ccc(OC)cc2)C=C(C)C(C(=O)OC)C1c1ccc(C)cc1 (centres unmarked) | 16.5
52 | CC(C)(C)NC(=O)C(=O)N/N=C/c1cccs1 | -5.31
53 | COC(=O)c1ccc2c(=O)[nH]c(COC(=O)c3c(-c4ccccc4Cl)noc3C)nc2c1 | 8.66
54 | Cc1noc(C)c1S(=O)(=O)Nc1c(C)n(C)n(-c2ccccc2)c1=O | 14.4
55 | Cc1oc(C(C)(C)C)cc1C(=O)Nc1ccc(N2CCOCC2)cc1 | 4.63
56 | CCC1CCCCN1C(=O)CSc1nnc(-c2ccc(OC)cc2)o1 (centres unmarked) | 1.6
57 | CCC(C)NCCOCCOc1ccc(Cl)c(C)c1C.O=C(O)C(=O)O (centres unmarked) | 13
58 | CCOC(=O)c1c(C)nc(C)c(C(=O)OCC)c1-c1ccccc1 | 0.12
59 | Cc1ccc(S(C)(=O)=O)cc1S(=O)(=O)Nc1ccccc1 | 2.79
60 | CCC(C)NC(=S)NNC(=O)c1ccc(C(C)(C)C)cc1 (centres unmarked) | 20.2
61 | CCOc1ccc(C(=O)NC2CCN(CC(=O)NCc3ccccc3)CC2)cc1 | -8.06
62 | CCCS(=O)(=O)n1nc(-c2ccccc2)cc1N | 15.4
63 | O=C(CCN1CCN(c2ccccc2)CC1)Nc1cccc(Br)c1 | -12.8
64 | Fc1cnc(Cl)nc1N1CCN(c2ccccc2)CC1 | 11
65 | COc1ccc(-n2c3c(cc(C(=O)N4CCC(C)CC4)c2=O)C(=O)CC(C)(C)C3)cc1 | 1.9
66 | Cc1cc(=O)oc2cc(NC(=O)CCC(=O)O)ccc12 | 3.82
67 | O=C(NC1CCCC1)C(c1ccncc1)N(Cc1ccccc1)C(=O)c1ccc(-c2ccccc2)[nH]1 (centres unmarked) | 5.93
68 | COc1ccccc1-c1noc(CCC(=O)Nc2cccc(C)c2)n1 | 7.82
69 | O=C(COC(=O)Cn1cnc2ccccc2c1=O)NCCC1=CCCCC1 | 6.61

Row | SMILES | hERG current change (%, negative = inhibition) at 1uM [%]
70 | COc1cccc(-c2nn(C)c3sc(C(=O)N4CCN(c5ccccn5)CC4)cc23)c1 | 6.12
71 | O=C1NC(=O)C(=Cc2cc(Cl)ccc2OCc2ccc(C(=O)O)cc2)C(=O)N1 | 13
72 | CCc1n[nH]c(=S)n1/N=C/c1cc(OC)cc([N+](=O)[O-])c1O | 8.45
73 | CC(=O)OC1N=C(c2ccccc2Cl)c2cc(Br)ccc2N(C)C1=O (centres unmarked) | 6.22
74 | CCOc1ccc(N2C(=O)C3CC(C)=C(C)CC3C2=O)c([N+](=O)[O-])c1 (centres unmarked) | 0.693
75 | CC(C)Nc1nnc(SC(C)C(=O)Nc2ccc(Cl)cn2)s1 (centres unmarked) | 6.77
76 | C/C(=N\NC(=S)NCc1ccccc1)c1cccs1 | 5.43
77 | CNC(=O)N(C1=NCC(C)(C)S1)c1ccc(F)c(Cl)c1 | 15.7
78 | O=C(c1ccc(Oc2ccccc2)cc1)c1nc2c(n1O)CCCC2 | 13.1
79 | COc1ccc(OC)c(/C=C/C(=O)N(C)CC(=O)Nc2cc(C)ccc2C)c1 | -7.55
80 | C=C(C)c1cccc(C(C)(C)NC(=O)NCC2COCCO2)c1 (centres unmarked) | 11.1
81 | C/C(=N/Nc1ccc(F)cc1)c1ccc(Cl)s1 | 11.3
82 | Cc1ccc(CNC(=O)C2CCN(S(=O)(=O)N3CC(C)CC(C)C3)CC2)cc1 (centres unmarked) | 12.5
83 | CC(OC(=O)C1CCCC1)C(=O)Nc1ccc(S(N)(=O)=O)cc1 (centres unmarked) | 14.6
84 | O=[N+]([O-])c1ccc(Nc2ccccc2)c2nonc12 | 12.7
85 | O=C(Nc1cccc(C(=O)O)c1)/C(=C\c1ccc(F)cc1)NC(=O)c1ccco1 | 12.1
86 | CCOc1ccc(Cc2n[nH]c(=S)n2N)cc1 | 17.4
87 | O=C(CC1SCCNC1=O)Nc1ccc(Cl)c(Cl)c1 (centres unmarked) | 3.37
88 | Cc1ccccc1CN1CCc2cc([N+](=O)[O-])ccc21 | 17.2
89 | Cc1nc2ncnn2c(N2CCN(S(=O)(=O)c3ccc(Br)cc3)CC2)c1C | 16.9
